Assay results: PMC4336329 (PLoS ONE, 2015)
Screen size: about 310,000 compounds; about 2,200 (0.71%) showed an effect of 50% or more. The effect is printed as a negative number. This is one part of the list.

What follows are molecules tested against human ether-à-go-go-related gene (hERG) potassium channel (human, UniProt Q12809) (assay: primary screen, population patch clamp on CHO cells stably expressing hERG).
Chain of human ether-à-go-go-related gene (hERG) potassium channel (Q12809 whole entry, looked up): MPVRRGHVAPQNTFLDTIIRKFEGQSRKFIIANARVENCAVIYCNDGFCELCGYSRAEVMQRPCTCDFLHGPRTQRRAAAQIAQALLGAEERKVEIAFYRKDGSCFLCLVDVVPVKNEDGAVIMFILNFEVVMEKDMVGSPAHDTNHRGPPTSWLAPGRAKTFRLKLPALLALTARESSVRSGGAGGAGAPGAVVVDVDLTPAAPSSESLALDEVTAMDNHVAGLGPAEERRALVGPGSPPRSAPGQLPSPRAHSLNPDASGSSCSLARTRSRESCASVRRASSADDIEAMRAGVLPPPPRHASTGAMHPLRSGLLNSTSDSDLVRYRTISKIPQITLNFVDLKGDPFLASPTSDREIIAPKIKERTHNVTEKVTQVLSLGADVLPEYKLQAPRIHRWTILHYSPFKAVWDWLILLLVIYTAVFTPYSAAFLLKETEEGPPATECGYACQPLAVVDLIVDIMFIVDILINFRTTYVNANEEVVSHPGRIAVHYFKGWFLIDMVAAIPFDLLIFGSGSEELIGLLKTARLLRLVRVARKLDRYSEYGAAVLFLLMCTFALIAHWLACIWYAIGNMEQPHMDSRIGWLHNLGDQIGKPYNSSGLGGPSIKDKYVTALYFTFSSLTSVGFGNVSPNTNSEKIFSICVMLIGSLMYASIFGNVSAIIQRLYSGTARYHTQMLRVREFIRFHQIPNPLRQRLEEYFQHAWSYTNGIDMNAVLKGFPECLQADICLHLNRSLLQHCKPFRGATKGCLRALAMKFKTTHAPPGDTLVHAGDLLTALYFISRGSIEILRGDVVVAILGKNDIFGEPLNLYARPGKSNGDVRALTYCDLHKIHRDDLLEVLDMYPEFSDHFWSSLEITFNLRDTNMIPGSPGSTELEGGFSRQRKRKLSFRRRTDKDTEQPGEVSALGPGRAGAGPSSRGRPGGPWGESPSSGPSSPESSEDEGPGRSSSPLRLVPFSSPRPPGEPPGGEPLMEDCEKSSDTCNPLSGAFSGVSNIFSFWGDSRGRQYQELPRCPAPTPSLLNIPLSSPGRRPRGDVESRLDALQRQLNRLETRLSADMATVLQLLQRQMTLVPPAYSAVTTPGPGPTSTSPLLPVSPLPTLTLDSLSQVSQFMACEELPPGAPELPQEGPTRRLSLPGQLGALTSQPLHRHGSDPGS

SMILES	hERG current change (%, negative = inhibition) at 1uM
CCSC1=NCCN1S(=O)(=O)c1ccc(Cl)cc1	1.57%
COc1ccccc1NC(=S)N(Cc1cccnc1)Cc1ccco1	-16.3%
c1ccc(C(c2c[nH]c3ccccc23)c2c[nH]c3ccccc23)nc1	-1.87%
O=C1OCCN1S(=O)(=O)Nc1ccccc1	4.67%
COc1ccc(CCN(C)Cc2c(O)ccc3cc(Br)ccc23)cc1OC	-8.32%
COc1ccc(CS(=O)(=O)CC2(O)CCN(C(=O)c3cccc(C(F)(F)F)c3)CC2)cc1	5.2%
CC[C@@]12C(=O)N(c3cccc(Br)c3)C(=O)N1[C@H](c1ccc(Cl)cc1)[C@@H]1C(=O)N(C3CCCCC3)C(=O)[C@@H]12	6.83%
OC[C@@H](O)[C@@H](O[C@H]1O[C@H](CO)[C@@H](O)[C@H](O)[C@H]1O)[C@H](O)[C@@H](O)CO	15.3%
Cn1c(CC(=O)NNC(=O)c2ccccc2[N+](=O)[O-])nc2ccccc21	14.1%
CCN1C(=NCC2CC2)N[C@@H](c2cccc(C(F)(F)F)c2)C(C(=O)OC)=C1C	2.22%
c1ccc(-c2nc(N3CCCCCC3)c3ccccc3n2)nc1	-82.3%
CCOC(=O)C1=C(COC(=O)CCOc2ccccc2)NC(=O)NC1C (stereo not shown)	-0.625%
COc1ccc(-n2cnnc2SCC(=O)NC2CCCc3ccccc32)cc1 (stereo not shown)	8.08%
CC(=O)Nc1cn(-c2ccccc2)nc1-c1ccccc1	-0.912%
O=C(Nc1nc2cc(Cl)ccc2s1)C1CCCN(S(=O)(=O)c2cccc3cccnc23)C1 (stereo not shown)	11%
COC(=O)c1ccc(C2SCC(=O)N2Cc2ccccc2)cc1 (stereo not shown)	5.33%
CC(C)(C)c1ccc(/C=C/C(=O)NC2=NCCS2)cc1	10.4%
CCOc1ccc2nc(NC(=O)CN3CCOCC3)sc2c1	-21.6%
CCN(CC)S(=O)(=O)c1cccc(C(=O)Nc2ccccc2C(=O)N2CCOCC2)c1	7.74%
Cn1c(SCC(=O)NC2CC2)nnc1-c1cccs1	-7.05%
CC(C)(C)n1nc2c(c1NC(=O)Cc1ccc(Cl)cc1)CS(=O)(=O)C2	0.177%
N/C(=N\N=C\c1cccs1)SC1CC(=O)N(c2ccc(Br)cc2)C1=O (stereo not shown)	12.5%

SMILES	hERG current change (%, negative = inhibition) at 1uM
CCCOC(=O)c1ccc(NC(=O)COC)cc1	4.75%
COc1ccc(OC)c(NC(=O)Cn2cc(C#N)c3cc(Br)ccc32)c1	1.87%
CCOc1ccc(-c2nc(CSCC(=O)NCCCN3CCCC3=O)c(C)o2)cc1	27.3%
CCCC(=O)Nc1nc(C)c(-c2csc(Nc3ccc(Cl)cc3)n2)s1	10.5%
O=C(c1cccc(S(=O)(=O)N2CCOCC2)c1)N1CCCC1	-7.69%
CN(C)S(=O)(=O)c1ccc(C(=O)NNC(=O)c2ccccc2-n2cccc2)cc1	1.65%
COc1ccc(/C=C2\SC(c3ccc(C)cc3)=NC2=O)cc1OC	11%
COC(=O)c1cnc2c(c1C(=O)OC)c(=O)n(C)c(=O)n2C	4.97%
O=C1CCCN2N=C(SCC(=O)Nc3ccccc3C(F)(F)F)SC2=N1	15.6%
O=C(c1ccc(F)cc1)N(Cc1ccco1)C1CCS(=O)(=O)C1 (stereo not shown)	15.7%
COc1ccc(/C=N/n2c(C)nc3c([nH]c4ccccc43)c2=O)cc1CN1CCCC(C)(C)C1	-11.5%
O=C(O)c1cc(-c2ccc(N3CCOCC3)cc2)nn1-c1ccccc1Cl	30.1%
CCN1CCN(c2ccc(NC(=O)c3ccc4c(c3)OCO4)cc2)CC1	-16.7%
Cc1cc2oc(C(=O)Nc3ccc(S(=O)(=O)Nc4ncccn4)cc3)c(C)c2cc1Cl	14.6%
Cc1ccc(S(=O)(=O)N2CCOCC2)cc1C(=O)N1CCN(S(=O)(=O)c2cccs2)CC1	1.82%
CC(C)(C)C(=O)Nc1ccc2c(c1)OCCOCCOc1cc(NC(=O)C(C)(C)C)ccc1OCCOCCO2	-36%
COc1ccc(C(=O)O/N=C(\N)c2ccccn2)cc1[N+](=O)[O-]	13.5%
Nc1ccc(S(=O)(=O)N2CCCCC2c2cccnc2)cc1 (stereo not shown)	8.58%
Oc1ccc(/C=N/Nc2cc(N3CCCC3)nc(N3CCCC3)n2)cc1	8.4%
Cc1cccc(N2CCN(S(=O)(=O)c3ccc4c(c3)C(C)(C)C(=O)N4C)CC2)c1C	12.4%
O=C1COc2ccc(C(=O)CSc3nnnn3-c3ccccc3)cc2N1	3.64%
CCn1cc(C(=O)O)c(=O)c2cnc(N3CCN(C(=S)NC(=O)c4ccc(Br)cc4)CC3)nc21	9.51%

SMILES	hERG current change (%, negative = inhibition) at 1uM
CCOc1ccc(CNC(=O)c2cc3oc4ccccc4c3n2C)cc1	12.1%
COc1ccc(CC(=O)Nc2c3c(nn2-c2cccc(C)c2C)CS(=O)(=O)C3)cc1	-11.4%
COc1ccccc1N(C1=NCCCS1)S(=O)(=O)c1ccc(C(C)(C)C)cc1	1.17%
COc1ccc(-c2ccc(NCCN3CCOCC3)nn2)cc1OC	15.1%
CCCC(C(=O)NC1CCCCC1)N(CC1CCCO1)C(=O)CNS(=O)(=O)c1ccc(F)cc1 (stereo not shown)	-5.69%
Cc1nc(-c2ccc([N+](=O)[O-])cc2)sc1C(=O)O	13.4%
CCOc1ccc(OCCC(=O)NNC(=O)c2ccncc2)cc1	7.45%
CSc1ncc(Cl)c(C(=O)Nc2c(C)cccc2C)n1	19.8%
O=C(O)c1ccc2noc(-c3ccccc3)c2c1	11.4%
COc1ccc(-c2cc(C(=O)N3CCCCCC3)c3ccccc3n2)c(OC)c1	9.28%
Cc1ccc(C(=O)Nc2nccc(C)n2)cc1	14.6%
CCOC(=O)/C=C/C(=O)Nc1ccc(S(=O)(=O)Nc2c(C)cc(C)cc2C)cc1	2.44%
O=C(Nc1cccc(NC(=O)c2ccccc2[N+](=O)[O-])n1)c1ccccc1[N+](=O)[O-]	7.78%
Cc1nnc(C)n1/N=C/c1cccn1C	8.5%
CC(C)C1=NOC(C(=O)N2CCC(N3CCC(C(=O)N4CCOCC4)CC3)CC2)C1 (stereo not shown)	11.4%
Cc1ccc(S(=O)(=O)n2nc(OC(=O)c3c(F)cccc3Cl)cc2N)cc1	-8.27%
COc1cccc(-c2cc(C(=O)Nc3c(C)nn(Cc4ccccc4)c3C)no2)c1	9.56%
COc1ccc(N2CC(C(=O)N[C@@H](C)C(=O)NCc3ccccc3OC)CC2=O)cc1 (stereo partly shown)	9.6%
O=C(NCC1CCCO1)c1ccc(Oc2ccc([N+](=O)[O-])cc2)cc1 (stereo not shown)	-12.3%
NC(=O)c1nsc(C(=O)N(c2ccccc2)C(C(=O)NCc2ccc(F)cc2)c2ccc(O)cc2)c1N (stereo not shown)	8.1%
O=C(NCc1ccco1)/C(=C\c1ccco1)NC(=O)c1ccco1	11%
Cc1ccc2nc3c(cc2c1)c(C)nn3-c1ccccc1	15.1%

SMILES	hERG current change (%, negative = inhibition) at 1uM
CCOc1ccc(-c2c(=O)n(OCc3ccc([N+](=O)[O-])cc3)c3ccccc3[n+]2[O-])cc1	-2.14%
CNC(=O)COc1coc(CN2CCN(c3ccccc3OC)CC2)cc1=O	14.7%
CCN(Cc1ccccc1)C(=O)Cn1c(=O)n(CC(=O)N2CCCCC2)c(=O)c2sccc21	13.9%
Fc1cc2[nH]cnc2cc1Cl	7.87%
N#CC1=C(N)Nc2ncnn2C1c1ccccc1 (stereo not shown)	14.6%
O=C(Nc1cc(Cl)ccc1N1CCOCC1)c1cnccn1	9.8%
Cc1ccc(Br)cc1S(=O)(=O)N1CCN(c2ccccc2)CC1	4.81%
Cc1ccccc1CC(=O)NC1CCCc2ccccc21 (stereo not shown)	18.5%
CN(C)c1ccc(/C=N/NC(=O)c2ccnn2C)cc1	6.56%
CCN(C1CCS(=O)(=O)C1)S(=O)(=O)c1ccc(OC)c(OC)c1 (stereo not shown)	-1.14%
Cc1cnc(NC(=O)c2cc3c(C)nn(-c4ccccc4)c3s2)s1	10.4%
Fc1ccc(CSc2nnc3ccccn23)c(Cl)c1	13.1%
CCn1nc(C(=O)N[C@@H](CCSC)c2nc3ccccc3[nH]2)c2ccccc2c1=O	-4.1%
COCCn1c(SCC(=O)Nc2ccc(OC)c(S(N)(=O)=O)c2)nc2ccccc21	12%
CN1CCN(C(=S)c2ccc(OCC(=O)Nc3cccc(C(F)(F)F)c3)cc2)CC1	14.5%
Cc1cc2c(C)nc(N/N=C/c3ccc([N+](=O)[O-])cc3)nc2o1	-2.5%
Cc1ccccc1-n1cc(CNCc2c(C(=O)N(C)C)nc3ccc(Cl)cn23)cn1	4.77%
CN(Cc1nccn1C)C(=O)C1CCC(=O)N(Cc2cccc(C(F)(F)F)c2)C1 (stereo not shown)	8.08%
C=CCNC(=O)/C(=C\c1ccc(OC)cc1)NC(=O)c1ccc([N+](=O)[O-])cc1	-64.7%
